About 120 (0.25%) of roughly 48,000 compounds were called active. Roughly 4% stayed inconclusive and do not appear here. Calls come from the whole dose curve; as a rule, active = well fitted activation curve with a large enough effect; inconclusive = small, poorly fitted or top-dose-only effect, or another doubt; inactive = no such curve, though single readings can be large or run the other way. This is one part of the list.

The test in a line: Primary qHTS for Identification of Small Molecule Activators of Huntingtin-Antisense Promoter Activity. Note: nearly all actives have a fitted effect of over 55% in size. Particulars: HEK293 HTT-AS promoter firefly luciferase reporter, 24 h; series mostly up to 57.5 µM; activity change, positive = activation: at the top concentration. A digest of the protocol: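 Firefly luciferase readout (Dual-Glo, 10 min RT) after 24 h, 37 °C compound exposure (final up to 57.5 uM) of HEK293 reporter cells cultured 24 h beforehand; PTC124 at 50 uM final as control inhibitor; activity scaled vehicle 0%, zero RLU -100%.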
For orientation: qHTS replaces the single test concentration by a dilution series.
As to `O=C(Nc1ccc(F)cc1F)c1cc(-c2ccccc2O)no1`, the “activity change, positive = activation” value was inactive: -2.33%.

Take `Cc1nn2c(=O)cc(COC(=O)c3ccc(NC(=O)C4CCCCC4)cc3)nc2s1`: the “activity change, positive = activation” value is inactive: -13%.

In the case of `COc1cc(NC(=O)Cn2nc(C(F)(F)F)c3c2CCCC3)c(OC)cc1Cl`, the “activity change, positive = activation” value was inactive: -28.4%.

Regarding `CCCCOC(=O)c1ccc(NC(=O)c2cc3c(=O)n4cccc(C)c4nc3n2C)cc1`, the “activity change, positive = activation” value is inactive: -8.69%.

`COCCNC(=O)CCCn1c(=O)c2cc(OC)c(OC)cc2n(CC(=O)Nc2ccc(F)cc2)c1=O`: the “activity change, positive = activation” value is inactive: 2.95%.

Regarding `O=C(CSc1nc(=O)[nH]c2c1CCCC2)Nc1ccccc1C(F)(F)F`, the “activity change, positive = activation” value was inactive: -3.5%.

Regarding `CCOC(=O)C1CCN(CCC(=O)Nc2ccc(Br)c(C)c2)CC1`, the “activity change, positive = activation” value was inactive: -0.457%.

Take `CCOc1ccc(CNC(=O)c2ccc(-c3nc(CS(=O)(=O)c4ccccc4)c(C)o3)cc2)cc1`: the “activity change, positive = activation” value was inactive: -13.5%.

As to `Cc1nn2c(=O)cc(COC(=O)c3cccc(NC(=O)c4cccs4)c3)nc2s1`, the “activity change, positive = activation” value is inactive: -72.8%.

With `Cc1cccc(N(C)S(=O)(=O)c2cc3c(cc2Cl)NC(=O)CO3)c1`, the “activity change, positive = activation” value was inactive: -16.6%.

For `CCOc1ccc(NS(=O)(=O)c2ccc3[nH]c4c(c3c2)CCCC4)cc1`, the “activity change, positive = activation” value was inactive: -27.8%.

On to `Cc1ccc(CNS(=O)(=O)c2ccc3c(c2)CCN3S(C)(=O)=O)cc1`, for which the “activity change, positive = activation” value was inactive: -14.9%.

Turning to `COc1ccc(N(CC(=O)N2CCN(c3cccc(C)c3C)CC2)S(=O)(=O)c2c(C)noc2C)cc1`, the “activity change, positive = activation” value was inactive: -30.4%.

On to `COc1ccc2nc(N(Cc3cccnc3)C(=O)c3ccc4c(c3)OCCO4)sc2c1`, for which the “activity change, positive = activation” value is inactive: 3.19%.

With `CCCSc1ncc(Cl)c(C(=O)Nc2sc3c(c2C(=O)NCCOC)CCCC3)n1`, the “activity change, positive = activation” value is inactive: -17.8%.

As for `Cc1c(Cl)cccc1NC(=O)CSc1nc(=O)n(Cc2ccccn2)c2c1CCC2`, the “activity change, positive = activation” value was inactive: -27.7%.

In the case of `Cc1ccc(-c2c(C(=O)Nc3ccc(F)c(F)c3)oc(=O)c3ccccc23)cc1`, the “activity change, positive = activation” value is inactive: -36%.

With `CCn1cc(C(=O)NCc2ccc(C)cc2)c(=O)c2cc(S(=O)(=O)N3CCC(C)CC3)ccc21`, the “activity change, positive = activation” value is inactive: -0.58%.

For `CN(C)c1ccc(CNC(=O)c2cc3cc(S(=O)(=O)N4CCCCC4)ccc3n2C)cc1`, the “activity change, positive = activation” value was inactive: -30.7%.

For `O=C(CN1C(=O)C2CCCCN2c2ccc(C(=O)N3CCCC3)cc21)NCc1cccc(Cl)c1` (configuration not stated), the “activity change, positive = activation” value was inactive: -30.1%.

For `Cc1ccc(Cl)c2sc(NC(=O)CS(=O)(=O)c3ccc(Cl)cc3)nc12`, the “activity change, positive = activation” value was inactive: -17.5%.

As to `CC(=O)[C@H]1CC[C@H]2[C@@H]3C[C@H](C)C4=CC(=O)CC[C@]4(C)[C@H]3[C@@H](O)C[C@]12C`, the “activity change, positive = activation” value is inactive: -11.3%.

On to `O=C(Nc1c(Cl)cncc1Cl)c1ccc(OC(F)F)c(OCC2CC2)c1`, for which the “activity change, positive = activation” value is inactive: -15.5%.

As for `CCOc1ccc(CNS(=O)(=O)c2c(C(=O)N3CCCCCC3)c(C)n(C)c2C)cc1OC`, the “activity change, positive = activation” value is inactive: -4.68%.

As to `CCOC(=O)OC(C)OC1=C(C(=O)Nc2ccccn2)N(C)S(=O)(=O)c2ccccc21` (configuration not stated), the “activity change, positive = activation” value is inactive: -0.427%.

Take `COc1ccc(NC(=O)c2nnn(Cc3nc(-c4cc(Br)ccc4OC)oc3C)c2C)cc1`: the “activity change, positive = activation” value is inactive: -5.15%.

As to `CCOc1cccc(C2c3c(oc4ccc(F)cc4c3=O)C(=O)N2CCc2ccc(OC)cc2)c1` (configuration not stated), the “activity change, positive = activation” value was inactive: -2.35%.

Consider `COc1ccc(Nc2cc(C(=O)NC3CCCC3)c3ccccc3n2)c(OC)c1`, for which the “activity change, positive = activation” value is inactive: -15.1%.

With `Cc1ccc(CN(C(=O)Nc2cccc(Cl)c2)c2ccccn2)cc1`, the “activity change, positive = activation” value is inactive: -10.2%.

Regarding `CCNC(=O)Cn1c(-c2cccs2)cc2ccccc21`, the “activity change, positive = activation” value is inactive: -24.3%.

Turning to `Cc1oc(C)c2c(=O)cc(-c3ccc4c(c3)OCO4)cc(OC(=O)c3ccccc3Br)c12`, the “activity change, positive = activation” value is inactive: -15.2%.

For the compound `COc1ccc(NC(=O)C2CCN(S(=O)(=O)c3ccc4c(c3)CCCC(=O)N4)CC2)cc1Cl`, the “activity change, positive = activation” value is inactive: -14.9%.

As to `COc1ccc(S(=O)(=O)N2CCN(c3ccccc3OC)CC2)cc1-c1noc(C)n1`, the “activity change, positive = activation” value is inactive: -3.41%.

Take `Cc1ccc(Cn2c(-c3ccccc3)nc3ccccc32)cc1`: the “activity change, positive = activation” value is inactive: -4.21%.

`COc1cc(/C=C(\C#N)c2nc3ccccc3c(=O)[nH]2)cc(OC)c1OC`: the “activity change, positive = activation” value is inactive: -18.6%.

Consider `Cc1ccc(-c2nc3ccccc3n3c(-c4ccccc4)c4c(=O)n(C)c(=O)n(C)c4c23)cc1`, for which the activity change, positive = activation was inactive: 11% [at 11.5 µM, percent change from vehicle, -100% = no light].

Consider `CCn1ccc2cc(S(=O)(=O)N3CCCN(C(=O)NCC(C)C)CC3)ccc21`, for which the “activity change, positive = activation” value was inactive: -18.6%.

For the compound `COc1cc(OC)c(NC(=O)c2cc(CN3CCOCC3)on2)cc1Cl`, the “activity change, positive = activation” value was inactive: -5.05%.

`CCn1ccc2cc(S(=O)(=O)N3CCC(C(=O)NCc4cccc(C)c4)CC3)ccc21`: the “activity change, positive = activation” value is inactive: -14.8%.

Take `Cc1ccc(C)c(Cn2c(=O)n(CCCCC(=O)NCc3ccccc3Cl)c(=O)c3ccccc32)c1`: the “activity change, positive = activation” value is inactive: -7.28%.

Turning to `COc1ccccc1N1CCN(c2csc3ccc(Cl)cc3c2=O)CC1`, the “activity change, positive = activation” value was inactive: -5.61%.

`CCOc1ccccc1NC(=O)Cn1ccn(-c2ccccc2)c(=O)c1=O`: the “activity change, positive = activation” value was inactive: -6.56%.

As to `CCCCNC(=O)c1cc(Sc2ccc(OCC)cc2)nc2ccccc12`, the “activity change, positive = activation” value was inactive: -24.9%.

`Cn1c(=NC(=O)c2ccc3c(c2)OCCO3)sc2cc(S(C)(=O)=O)ccc21`: the “activity change, positive = activation” value was inactive: 12.5%.

`COc1ccccc1CNC(=O)C(CC(C)C)NS(=O)(=O)c1ccc2c(c1)oc(=O)n2C` (configuration not stated): the “activity change, positive = activation” value was inactive: -4.84%.

Take `CCC(=O)N1CCc2cc(S(=O)(=O)NCCC(=O)NCc3ccccc3Cl)ccc21`: the “activity change, positive = activation” value was inactive: -8.29%.

Consider `Cc1ccccc1-c1noc(C(C)NC(=O)c2ccco2)n1` (configuration not stated), for which the “activity change, positive = activation” value was inactive: -14.7%.
